This is one part of the list. Each Rep nickase domain was tested in vitro on the same pool of single strands at 3 µM enzyme and 37 °C for 1 h; the strands have 90 letters, of which the middle is given. Numbers give uncut DNA relative to the enzyme-free pool, as log2; strong cutting gives strongly negative numbers. There is no active / inactive call. The scaling is to total reads; where an enzyme cuts many sequences, the uncut ones exceed 0.
How the values were obtained:
Assay in all cases: uncleaved DNA left, log2 of reads against the no-enzyme library (log2 ratio); higher = less cleavage (more negative = more Rep cleavage of the k-mer); sequences stand for … in CTCGTCCG…ACCGGAGA
[1] = tested on: T1, Rep nickase domain of Muscovy duck circovirus
T1 sequence (residues 1-111 of Rep, tag left off): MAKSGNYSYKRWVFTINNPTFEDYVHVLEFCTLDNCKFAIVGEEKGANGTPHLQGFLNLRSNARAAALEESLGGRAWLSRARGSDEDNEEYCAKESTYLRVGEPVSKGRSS
Method: (§1)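 A pool of 90-nt single-stranded DNAs with seven random bases just before the constant AC of the nick site (name = the seven bases) was cut by 3 µM recombinant His6-SUMO-tagged Rep nickase domain (300 nM DNA, 50 mM HEPES pH 8.0, 50 mM NaCl, 1 mM MnCl2, 1 h, 37 °C, three replicates). Uncut DNA was amplified and sequenced.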

[2] = tested on: T2, Rep nickase domain of banana bunchy top virus
T2 sequence (residues 1-94 of Rep, tag left off): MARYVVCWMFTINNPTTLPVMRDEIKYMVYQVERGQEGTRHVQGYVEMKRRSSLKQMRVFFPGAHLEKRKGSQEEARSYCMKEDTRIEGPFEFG
Method: as §1

[3] = tested on: T3, Rep nickase domain of cabbage leaf curl virus
T3 sequence (residues 1-116 of Rep, tag left off): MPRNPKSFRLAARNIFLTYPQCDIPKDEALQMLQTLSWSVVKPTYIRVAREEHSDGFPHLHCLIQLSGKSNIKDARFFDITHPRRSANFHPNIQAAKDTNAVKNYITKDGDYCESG
Method: as §1

[4] = tested on: T4, Rep nickase domain of chickpea chlorotic dwarf virus
T4 sequence (residues 1-124 of Rep, tag left off): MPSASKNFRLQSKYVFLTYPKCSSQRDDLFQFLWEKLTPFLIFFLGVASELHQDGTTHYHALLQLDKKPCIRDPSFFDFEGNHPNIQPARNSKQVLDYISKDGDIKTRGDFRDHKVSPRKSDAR
Method: as §1

[5] = tested on: T5, Rep nickase domain of faba bean necrotic yellows virus
T5 sequence (residues 1-98 of Rep, tag left off): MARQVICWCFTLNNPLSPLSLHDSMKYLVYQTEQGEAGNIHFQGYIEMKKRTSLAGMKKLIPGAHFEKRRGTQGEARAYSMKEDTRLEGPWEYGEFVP
Method: as §1

[6] = tested on: T6, Rep nickase domain of maize striate mosaic virus
T6 sequence (residues 1-117 of Rep, tag left off): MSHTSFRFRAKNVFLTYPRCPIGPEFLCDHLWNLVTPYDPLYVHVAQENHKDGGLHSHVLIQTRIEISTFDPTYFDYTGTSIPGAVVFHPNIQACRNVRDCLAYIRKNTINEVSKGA
Method: as §1

[7] = tested on: T7, Rep nickase domain of porcine circovirus 2
T7 sequence (residues 2-116 of Rep, tag left off): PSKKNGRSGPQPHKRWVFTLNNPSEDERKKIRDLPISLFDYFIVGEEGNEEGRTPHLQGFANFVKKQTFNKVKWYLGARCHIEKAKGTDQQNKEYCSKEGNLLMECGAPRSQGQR
Method: as §1

[8] = tested on: T8, Rep nickase domain of tomato golden mosaic virus
T8 sequence (residues 1-124 of Rep, tag left off): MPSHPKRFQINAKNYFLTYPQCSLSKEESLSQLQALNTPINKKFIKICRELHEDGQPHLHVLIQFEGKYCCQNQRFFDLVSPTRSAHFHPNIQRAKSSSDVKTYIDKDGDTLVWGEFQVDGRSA
Method: as §1

[9] = tested on: T9, Rep nickase domain of tomato yellow leaf curl virus
T9 sequence (residues 1-136 of Rep, tag left off): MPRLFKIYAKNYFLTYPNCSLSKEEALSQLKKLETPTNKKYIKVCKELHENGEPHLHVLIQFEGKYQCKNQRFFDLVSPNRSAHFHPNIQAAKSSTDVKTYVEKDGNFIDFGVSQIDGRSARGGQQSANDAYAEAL
Method: as §1

[10] = tested on: T10, Rep nickase domain of wheat dwarf virus
T10 sequence (residues 1-137 of Rep, tag left off): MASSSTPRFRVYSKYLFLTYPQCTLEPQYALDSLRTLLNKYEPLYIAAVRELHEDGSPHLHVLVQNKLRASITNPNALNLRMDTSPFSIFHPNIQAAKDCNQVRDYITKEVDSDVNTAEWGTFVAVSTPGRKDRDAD
Method: as §1

Row | Sequence | uncleaved DNA left (log2) [1] | uncleaved DNA left (log2) [2] | uncleaved DNA left (log2) [3] | uncleaved DNA left (log2) [4] | uncleaved DNA left (log2) [5] | uncleaved DNA left (log2) [6] | uncleaved DNA left (log2) [7] | uncleaved DNA left (log2) [8] | uncleaved DNA left (log2) [9] | uncleaved DNA left (log2) [10]
1 | GAGCACG | 0.00541 | 0.0101 | -0.335 | -0.104 | -0.0567 | -0.292 | 0.0306 | 0.0301 | -0.117 | 0.0473
2 | TAACCTA | -0.272 | -0.0619 | -1.47 | -3.08 | -0.0996 | -0.935 | -1.13 | -0.264 | -0.0599 | -0.539
3 | GTAATGT | -0.0284 | 0.00451 | 0.312 | 0.751 | -0.0457 | 1.52 | 0.129 | 0.0512 | -0.0119 | -0.0283
4 | CCAGTGC | -0.0717 | 0.0831 | -0.611 | -0.0938 | 0.065 | -0.888 | 0.11 | -0.0577 | 0.178 | -0.0198
5 | AAGTCGC | -0.109 | -0.0664 | -0.745 | -0.99 | -0.0263 | -1.04 | -1.36 | -0.0731 | -0.0646 | -0.139
6 | ATTGACT | -0.0573 | 0.00467 | 0.0808 | -0.142 | 0.0256 | 0.454 | -0.137 | 0.045 | 0.0387 | -0.05
7 | TAATGAT | -3.25 | -0.52 | -4.5 | -2.9 | 0.032 | -2.79 | -4.08 | -3.94 | -1.52 | -3.92
8 | CGTTCTG | -0.133 | -0.2 | -0.155 | 0.375 | -0.0237 | 1.12 | -0.122 | -0.101 | -0.084 | -0.00508
9 | ACGAGGT | 0.00995 | -0.0701 | 0.0909 | 0.218 | -0.0923 | -0.13 | 0.0701 | 0.0385 | -0.0429 | -0.119
10 | AAGTACG | 0.0252 | 0.158 | -0.59 | -0.531 | 0.0593 | -1 | 0.166 | 0.0359 | 0.0324 | -0.0781
11 | AATCTAG | -0.0155 | 0.00143 | -0.732 | -0.64 | 0.0752 | -1.23 | 0.173 | 0.0176 | 0.0104 | -0.0424
12 | CCGAAAC | 0.107 | -0.12 | 0.0799 | -0.125 | 0.0427 | -0.467 | 0.0664 | 0.0462 | -0.0232 | 0.0186
13 | TCGGAAG | -0.118 | -0.0861 | -0.614 | -0.666 | -0.0725 | -1.06 | 0.0699 | -0.107 | -0.076 | -0.178
14 | CCCGCTG | 0.0397 | -0.0686 | 0.196 | 0.822 | -0.0912 | 1.13 | 0.146 | 0.101 | -0.0583 | -0.0202
15 | ATCCCTG | -0.15 | -0.159 | -0.177 | 0.214 | -0.0169 | 0.2 | -0.0586 | -0.0913 | -0.198 | -0.134
16 | ACGCGGG | 0.00374 | -0.03 | -0.515 | -0.362 | 0.0177 | -1 | 0.0744 | -0.0465 | -0.0804 | -0.171
17 | GCTCGAA | 0.038 | -0.107 | 0.032 | 0.322 | -0.0907 | -0.0765 | -0.0472 | -0.071 | -0.113 | -0.0889
18 | TCGCGCC | -0.0169 | -0.199 | -0.464 | -0.627 | -0.0791 | -0.823 | -0.0859 | -0.123 | -0.0948 | -0.174
19 | AGCCGCC | -0.134 | -0.0134 | 0.0428 | 0.11 | 0.0105 | 0.126 | 0.0125 | -0.0771 | -0.0554 | -0.0109
20 | CAGCCCC | -0.0184 | -0.134 | 0.0226 | -0.311 | -0.00264 | 0.0163 | -0.264 | 0.0123 | -0.059 | -0.0972
21 | CCAGTCC | -0.172 | -0.211 | 0.203 | -0.196 | 0.00897 | -0.333 | -0.0116 | -0.0472 | -0.141 | -0.0716
22 | GGGTTAA | 0.0133 | 0.056 | 0.723 | 1.74 | -0.00683 | 2.1 | 0.17 | 0.0452 | -0.00701 | 0.0976
23 | TAGGAGA | 0.0777 | 0.106 | 0.333 | 0.688 | -0.0994 | 0.719 | 0.0437 | 0.0862 | 0.0287 | 0.0097
24 | TGGGGTT | 0.0424 | 0.0513 | 0.476 | 1.23 | 0.133 | 1.89 | 0.214 | -0.026 | -0.0569 | 0.148
25 | TCGCTTT | -0.191 | -0.335 | -0.246 | -2.05 | -0.187 | -0.684 | -1.12 | -0.417 | -0.107 | -0.418
26 | ATGCAGA | 0.145 | 0.145 | -0.412 | -0.401 | 0.197 | -1.07 | 0.183 | 0.0888 | 0.00749 | 0.0497
27 | CGAGACA | 0.106 | 0.0635 | 0.525 | 0.65 | 0.101 | 1.33 | 0.0153 | 0.103 | 0.0787 | 0.134
28 | TCAAGGA | 0.111 | 0.134 | 0.106 | 0.522 | 0.0651 | -0.0816 | 0.258 | 0.264 | 0.0478 | 0.0906
29 | TCGTACG | -0.197 | -0.0779 | -0.791 | -0.821 | 0.0481 | -1.35 | 0.0923 | -0.0552 | -0.147 | -0.103

— the supplement of paper PMC7826260
